Results taken from the RNAGym collection of RNA variant scans (doi:10.7554/elife.90254).
The source gives no read counts; variants with many changes may rest on few reads.

B1: OR4K15 (parent)
chain: GUUAACGGUCAUAGGCCAUGGAAACUAGGAGCACCAUUUCGCUGCCAGUGAAGAAAUGAACAAAGAAAAUCUGGGCCAGGCAGGCAUCAAAAGAAAUAGUCUUGCGCUCAACCAGAAAGUCUGUAAUCAUUUUAAGGGUA

Variants of: B1
Experiment: self-cleavage, relative activity (ratio to wild type); higher = more cleavage; in vitro, sequencing; the parent is a self-cleaving ribozyme

Variant | self-cleavage
GUUAACGGUCAUAGGCCAUGGAGACUAGGAGCACCAUUUCGCUGCCAGUGAAGAAGUGAACAAAGAAAAUCUGGGCCAGGCAGGCUCCAAAAGAAAUAGUCUUGCGCUCAACCAGAAAGUCUGUAAUCAUUUUAAGGGUA [A23G A56G A86U U87C] | 0.37
GUUAACGGUCAUAGGCCAUGGAGACUAGGAGCACCAUUUCGCUGCCAGUGAAGAAAUGAACAAAGAAAAUCUGGGCCAGGCUGGCAUCAAAAGAAUUAGUCUUGCGCUCAACCAGAAAGUCUGUAAUCAUUUUAAGGGUA [A23G A82U A96U] | 0.19
GUUAACGGUCGUAGGCCGUGGAAACUAGGAGCACCAUUUCGCCGCCAGUGAAGUAAUGAACAAAGAAAAUCUGGGCCAGGCAGGCAUCAAAAGAAAUAGUCUUGCGCUCAACCAGAAAGUCUGUAAUCAUUUUUAGGGUA [A11G A18G U43C A54U A134U] | 1.32
GUUAACGGCCAUAAGCCAUGGAAACUAGGAGCACCAUUUCGCUGCCAGUGAAGAAAUGAACAAAGAAAAUCUGGGCCAGGCAGGCAUCAAAAGAAAUAGUCUUGCGCACAACCAGAAAGUCUGUAAUCAUUUUAAGGGUA [U9C G14A U108A] | 0.03
GUUAACGGUCAUAGGCCAUGGAAACUAGGAGCACCAUUUCGCUGCCAGUGAAGAAAUGAACAAAGAAAAUCUGGGCCAGGCAGGCACCAAAAGUAAUGGUCUUGCGCUCAACCGGAAAGUCUGUAAUCAUUUUAAGGGUA [U87C A94U A98G A114G] | 0.42
GUUAACGGUCAUAGGCCAUGGAAACUAGGGGCACCAUUUCGCUGCCAGCGAAGAAAUGAACAAAGGAAACCCGGGCCAGGCAGGCAUCAAAAGAAAUAGUCUUGCGCUCAACCAGAAAGUCGGUAAUCAUUUUAAGGGUA [A30G U49C A66G U70C U72C U122G] | 0.16
GUUAACGGUCAUAGGCCAUGGAAACUAGGAGCACCAUUUCGCUGCCAGUGAAGAGAUGAACAAGGAAAAUCUGGGCCAGGCAGGCAUCAAAAGGAAUAGUCUUGCGCUCAACCAGAAAGUCUGUAAUCAUUUUAAGGGUA [A55G A64G A94G] | 1.69
GUUAACGGUCAUAGGCCAUGGAAACUAGGAGCACCAUUUCGCUGCCAGUGAAGAAAUGGACAAAGAAAAUCUGGGCCGGGCAGGCAUCAAAAGAAAUAGCCUUGCGCUCAACCAGAAAGUCUGUAAUCAUUUUAAGGGUA [A59G A78G U100C] | 0.24
GUUAACGGUCAUAGGCCAUGGAAACUAGGAGCACCAUUUCGCUGCCAGUGAAGAGAUGAACAAAGAAAAUCUGGGCCAGGCAGGCACCAAAAGUAAUAGUCUUGCGCUCAACCAGAAAGUCUGUAAUCAUUUUAAGGGUA [A55G U87C A94U] | 2.6
GUUAACGGUCAUAGGCCAUGGAAACUAGUAGCACCAUUUCGCUGCCAGUGAAGAAAUGAGCAAAGAAAAUCUGGGCCAGGCAGGCAUCAAAGGAAAUAGUCUUGCGCUCAACCAGGAAGUCUGUAAUCAUUUUAAGGGUA [G29U A60G A92G A116G] | 0.79
GUUAACGGUCAUAGGCCAUGGAAACUAGGAGCACCAUUUCGCUGCCAGUGAGGAAAUGAACAAAGAAAUUCUGGGCCAGGCAGGCAUCAAAAGAAAUAGUCUUGCGCUCAACCAGUAAGUCUGUAAUCAUUUUAAGGGUA [A52G A69U A116U] | 0.08
GUUAACGGUCAUAGGCCAUGGAACCUAGGAGCACCAUUUCGCUGCCAGUGAAGAGAUGAACAAAGAAAAUCUGGGCCAGGGAGGCAUCAAAAGAAAUAGUCUUGCGCUCAACCAGAAAGUCUGUAAUCAUUUUAAGGGUA [A24C A55G C81G] | 0.24
GUUAACGGUCAUUGGCCAUGGAGGCUAGGGGCACCAUUUCGCUGCCAGUGAAGAAAUGAACAAAGAAAAUCUGGGCCAGGCAGGCAUCAAAAGAAAUAGUCUUACGCUCAACCAGAAAGUUUGUAAUCAUCUUAAGGGUA [A13U A23G A24G A30G G104A C121U U131C] | 0.06
GUUAACGGUCAUAGGCCAUGGAAACUAGGAGCACCAUUUCGCUGCCAGUGAAGAAAUGAACAAAGAAAAUCUGGGCCAGGCGGGCAUCAGAAGAAAUAGUCUUGCGCUCAACCAGAGAGUCUGUAAUCAUUCUAAGGGUA [A82G A90G A117G U132C] | 0.54
GUUAGCGGUCAUAGGCCAUGGAGACUAGGAGCACCAUUUCGCUGCCAGUGAAGAAAUGAACAAAGAAAAUCUGGGCCAGGCAGGCAUCAAAAGAAAUAGUCUUGCGCUCAACCAGAAGGUCUGUAAUCAUUUUAAGGGUA [A5G A23G A118G] | 0.81
GUUAACGGUCAUAGGCCAUGGAAACUAGGAGCACCAUUUCGCUGCCAGUGAAGAAAUGGACUAAGUAAAUCUGGGCCUGGCAGGCAUCAAAAGAAAUAGUCUUGCGCUCAACCAGAAAGUCUGUAAUCAUUUUAAGGGUA [A59G A62U A66U A78U] | 0.24
GUUAACGGUCAUAGGCCAUGGAAACUAGGAGCACCAUUUCGCUGCCAGUGAAGAAAUGAACAAAGAAAAUCUGGGCCGGGCAGGCAUCAAAGGAACUAGUCUUGCGCUCAACCAGAAAGUCUGUAAUCAUUUUAAGGGUA [A78G A92G A96C] | 0.15
GUUAACGGUCAUAGACCAUGGAAACUAGGAGCACCAUUUCGCUGCCAGUGAAGAAAUGAGCAAAGAAAAUCUGGGCCAGGCAGGCAUCAAAAGAAAUAGUCUCGCGCUCAACCAGAAAGUCUGUAAUCAUUCUAAGGGUA [G15A A60G U103C U132C] | 0.69
GUUAACGGUCAUAGGCCAUGGAAACUAGGAGCACCAUUUCGCUGCCGGUGAGGAAAUGAACAGAGAAAAUCUGGGCCAGGCAGGCAUCAAAAGAAAUAGUCUAGCGCUCAACCAGAAAGUCUGUAAUCAUUUUAAGGAGG [A47G A52G A63G U103A G138A U139G A140G] | 0.48
GUUAACGGUCAUGGGCCAUGGAAACUAGGAGCACCAUUUCGCUGCCAGUGAAGAAAUGAACAAAGAAAAUCUGGGCCAGGCAGGCAUCAAGAGAAAUAGUCUUGCGCUCAACCAGAAAGUCUGUAAUCAUUCUAAGGGUA [A13G A91G U132C] | 0.92
GUUAACGGUCAUAGGCCAUGGAAGCUAGGAGCACCAUAUCGCUGCCAGUGAAGAAAUGAACAAAGAAAAUCUGGGCCAGGCAGGCAUCAAGAGAAAUAGCCUUGCGCUCAACCAGAAAGUCUGUAAUCAUUUUAAGGGUA [A24G U38A A91G U100C] | 0.88

Variant | self-cleavage
GUUAACGGUCAUAGGCCAUGGAAACUAGGGGCACCAUUUCGCUGCCAGUGAAGAAAUGAACAAAGAAAAUCUGGGCCAGGCAGGCAUCAGAAGAAAUAGUCUUGCGCUCAACCAGAGAGUCUGUAAUCACUUUAAGGGUA [A30G A90G A117G U130C] | 0.66
GCUGACGGUCAUAGGCCAUGGAAACUAGGAGCACCAUUUCGCUGCCAGUGAAGAAAUGAACAAAGAAAAUCUGGGCCAGGCAGGCAUCAAAAGAAAUAGUCUUGCGCUCAACCAGAAGGUCUGUAAUCAUUUUAAGGGUA [U2C A4G A118G] | 0.72
GUUAACGGUCAUAGGCCAUGGAAACUAGGAGCACCAUUUCGCUGCCAGUGAAGAAGUGAACAAAGGAAGUCUGGGCCAGGCAGGCAUCAAAAGAAAUAGUCUUGCGCUCAACCAGAAAGUCUGUAAUCAUUUUAAGGGUA [A56G A66G A69G] | 0.97
GUUAACGGUCAUAGGCCAUGGAAACUAGGAGCACCAUUUCGCUGCCAGCGAAGAGAUGAGCAAAGAAAAUCUGGGCCAGGCAGGCAUCAAAAGAAAUAGUCUUGCGCCCAACCAGAAAGUCUGUAAUCAUUUUAAGGGUA [U49C A55G A60G U108C] | 0.03
GUUAACGGUCAUAGGCCAUGGAAACUAGGAGCACCAUUUCGCUGCCAGUGAAGAAAUGUACAAAGAAAAUCUGGGCCAGGCAGGCAUCAAAAGAAAUAGUCUUGCGCUCGACCAGAGAGUCUGUAAUCAUUUUAAGGGUA [A59U A110G A117G] | 0.16
GAUAACGGUCAUAGGCCAUGGAAACUAGCAGCACCAUUUCGCCGCCAGUGAAGAAAUGAACUAAGAAAAUCUGGGCCAGGCAGGCAUCAAAAGAAAUAGUCCUGCGCUCAACCAGAAAGUCUGAACUCAUUUUAAGGGUA [U2A G29C U43C A62U U102C U124A A126C] | 0.44
GUUAACGGUCAUAGGCCAUGGAAACUAGGAGCACCAAUUCGCUGCCAGUGAAGAAAUGAACAAAGAAAAUCUGGGCCAGGCAGGCACCAAAAGAAAUAGUCUUGCGCUCAACCAGAAAGCCUGCGAUCAUUUUAAGGGUA [U37A U87C U120C U124C A125G] | 0.85
GUUAACGGUCAUAGGCCAUGGAAACUAGGAGCACCAUUUCGCUGCCAGUGAAGAAAUGAACAAAGAAAAUCUGGGCCAGGCAGGCAUCAAAAGAAAUAGUCUUGCGCUCAACCGGAGAGUCUGUAUUCAUUUUAAGGGAA [A114G A117G A126U U139A] | 0.67
GUUAACGGUCAUAGGCCGUGGAAGCUAGGAGCACCAUUUCGCUGCCAGUGAAGAAAUGAACAAAGAAAAUCUGGGCCAGGCAGGCAUCUAAAGAAGUAGUCUCGCGCUCAACCAGAAAGUCUGUAAUCAUUUUAAGGGUA [A18G A24G A89U A96G U103C] | 1.13
GUUAACGGUCAUAGGCCAUGGAAACUAGGAGCACCAUUUCGCUGCCAGUGAAGAAAUGAACAAAGAAAACCUGGGCCAGGCAGGCAUCAAAGGAAUUAGUCUUGCGCUCAACCAGAAAGUCUGUAAUCAUUUUAAGGGUA [U70C A92G A96U] | 0.52
GUUAACGGUCAUAGGCCAUGGAAGCUAGGAGCACCAUUUCGCUGCCAGUGAGGAAAUGAACAAAGAAAAUCUGGGCCAGGCGGGCAUCAAAAGAAGUAGUCUUGCGCUCAACCAGAGAGUCCGUAAUCAUUUUAAGGGUA [A24G A52G A82G A96G A117G U122C] | 0.28
GUUAACGGUCAUAGGCCAUGGAAACUAGGAGCACCAUUCCGCUGCCAGUGUAGAAAUGAACAGAGAAAAUCUGAGCCAGGCGGGCAUCAAAAGAAAUAGUCUUGCGCUCAACCAGAAAGUCUGUAAUCAUUCUAAGGGUA [U39C A51U A63G G74A A82G U132C] | 0.31
GUUAACGGUCAUAGGCCGUGGAGACUAGGAGCACCAUUCCGCUGCCAGUGAAGAAAUGAACAAAGAAAAUCUGGGCCAGGCAGGCAUCAAAAGAAGUAGUCUUGCUCUCAACCAGAAAGUCUGUAAUCGUUUUAAGGGUA [A18G A23G U39C A96G G106U A129G] | 0.01
GUUACCGGUCAUAGGCCAUGGAAAUUAGGAGCACCAUUUCGCUGCCAGUGAAGAAGUGAACAAAGAAAAUCUGGGCCAGGCAGGCAUCAAAAGAAAUAGUCUUGCGCUCAACCAGAAAGUCUGUAACCAUUUUAAGGGUA [A5C C25U A56G U127C] | 0.93
GUUAACGGUCAUAGGCCAUGGAAACUAGGAGCACCAUUCCGCUGCCAGUGAAGAAAUGAACAGAGAAAAUCUGGGCCAGGCAGGCAUCAAAAGAAAUAGUCUUGCGCUCAACCAGAAGGUCUGUAAUCAUUUUAAGGGUA [U39C A63G A118G] | 1.47
GUUAACGGUCAUAGGCCAUGGAAACUAGGAGCACCAUUUCGCUGCCAGUGAAGAAAUGAACAAAGAAAAUCUGGGCCAGGCAGGCAUCAAAAGAAAUAGUCCUGCGCUCAGCCAGAAAGUCUGUAAUCAUUUUGAGGGUA [U102C A111G A134G] | 0.01
GUUAACGGUCAUAGGCCAGGGGAACCAGGAGCACCAUUUCGCUGCCAGUGAAGAAAUGAACAGAGAAAAUCUGGGCCAGGCAGGCAUCAAAAGAAAUAGUCUUGCGCUCAACCAGAAAGUCUGUAAUCAUUUUAGGGGUA [U19G A22G U26C A63G A135G] | 1.37
GUUAACGGUCAUAGGCCAUGGAAACUAGGAGCACCAUUUCGCUGCCAGUGAAGAAAUGAACAAAGGAAAUCUGGGCCAGGCAGGCAUCAAGAGGAAUAGUCUUGCGCUCAACCAGAAAGUCUGUAAUCAUUUUAAGGGUA [A66G A91G A94G] | 1.6
GUUAACGGUCAUAGGCCAUGGAAACUAGGAGCACCAUUUCGCUGCCAGUGAAGAAAUGAACAAAGAAAAUCUGGGCCAGGCAGGCAUCAAAAGAAAUAGUCCAGCGCUCAACCAGAAAGUCUGUAAUCGUUUUAAGGGUA [U102C U103A A129G] | 0.08
GUUAACGGUCAUAGGCCAUGGAGACUAGGAGCACCAUUUCGCUGCCAGUGAAGAAAUGAGCAAAGAAAAUCUGGGCCAGGCAGGCAUCAAAAGAAAUAGUCCUGCGCUCAACCAGAAAGUCUGUAAGCAUUUUAAGGGUA [A23G A60G U102C U127G] | 1.41
